According to article PMC10668032:
Some of the results follow. At the low end of the ranking, values are background and their order means little.

Target: SIX1 homeodomain (reference allele) (UniProt Q15475)
Assay: universal protein binding microarray
Details: Universal all-10-mer PBM (8x60K, AMADID 030236), 300 nM GST-tagged protein, Alexa Fluor 488 anti-GST; buffer, salt, pH and temperature not stated; high values mean tight binding; most listed sequences are background and not binding sites; double strand, one strand shown

Row | Sequence | binding signal [E-score]
1 | ATGTACAG | -0.112
2 | AAAACGGG | -0.00222
3 | CTTCAAGC | -0.188
4 | ACAACGTG | -0.0482
5 | CATCAGTA | 0.0592
6 | CCTTCTAC | -0.00567
7 | AGCTCGCC | -0.0781
8 | CGCTTGAA | -0.0102
9 | AATGGGGT | 0.042
10 | ACATACTA | 0.00856
11 | GAACACAC | -0.0987
12 | GGCACCGA | -0.114
13 | GGCACCAA | -0.00958
14 | CCGCCTAG | 0.0347
15 | ATGTGGAA | -0.117
16 | CTATTAAA | -0.0207
17 | CAACTTGG | -0.0801
18 | CAAGACCA | -0.111
19 | GCAAACCA | 0.00225
20 | CGACTTAC | 0.116
21 | CTTGCGTA | 0.0072
22 | CTCAGTAA | -0.107
23 | AAAAGCTA | -0.292
24 | CTCATCAC | 0.0672
25 | ATTTAATA | 0.164

Row | Sequence | binding signal [E-score]
26 | ATCTGGGA | 0.196
27 | AAGGAAGT | -0.239
28 | CCCTTAAC | -0.0779
29 | CACGGCTG | 0.0253
30 | ATGCACAT | 0.0285
31 | CTTGCGTC | -0.212
32 | ACCCAGGG | -0.0357
33 | CAGGCCAG | -0.0438
34 | CTTTACTC | -0.131
35 | ATTGTGGG | -0.00693
36 | GGAGCTCC | -0.202
37 | CAGCAGTA | -0.0779
38 | CTGACGGA | -0.215
39 | GCCAGGCC | -0.299
40 | CCACTAAG | -0.0459
41 | GGGGGATA | 0.442
42 | ATGGGTAC | -0.0186
43 | TATGCCCA | 0.0887
44 | AATTAGAG | -0.105
45 | CATGCTCC | -0.149
46 | CTTCACCC | -0.0463
47 | TAATTGCA | -0.00933
48 | CAGCCTTA | -0.149
49 | CACTGTAG | 0.072
50 | CTTTGTTC | -0.244

Row | Sequence | binding signal [E-score]
51 | CTGTTATC | 0.0618
52 | CAGGCTCG | -0.0782
53 | ATTTTGTC | -0.238
54 | AGAGGCGA | -0.202
55 | ACGGTGGC | -0.126
56 | CGTTAAAA | -0.283
57 | AAGTGGTC | -0.132
58 | AACAGCTA | 5e-05
59 | ACATGGCA | 0.00146
60 | GTCCTGGA | -0.191
61 | ACATTCAG | -0.101
62 | ATCGTTGG | 0.205
63 | CCTGCACG | -0.0523
64 | AGGGACCT | -0.017
65 | CAGAGTTA | -0.185
66 | AAGTGGCC | -0.189
67 | CAGGTTGC | -0.139
68 | AAGAACCA | -0.187
69 | TCTCGACA | 0.0451
70 | TAGCAGCA | -0.136
71 | ATCCCGGA | 0.196
72 | GTAGTACA | -0.0431
73 | CAATACTA | 0.262
74 | CAAGGCCA | -0.144
75 | TGCCAACA | -0.187

Row | Sequence | binding signal [E-score]
76 | AATACTCA | 0.255
77 | ATTGGGGG | 0.152
78 | GCTGAGAA | -0.0745
79 | AAGTGAAT | 0.0397
80 | CCCACTCC | 0.0876
81 | ATGCATCG | -0.00749
82 | CGATCGAC | 0.0875
83 | ATAAGCGG | -0.107
84 | CCAATATA | 0.0646
85 | AGACACGG | 0.119
86 | ACAACATA | 0.103
87 | AGTCCCTG | -0.214
88 | AGCTAGAA | -0.136
89 | GACTCAGA | -0.171
90 | GATAATGC | 0.16
91 | AGGTGGAG | -0.235
92 | CTTTGTTA | -0.174
93 | CCATTGGA | -0.076
94 | GCCCTCTA | -0.192
95 | ATCCGGGG | 0.418
96 | GCCCCGCA | -0.149
97 | GAGATGGC | 0.0997
98 | AACAATTG | -0.128
99 | CTTAGTTC | -0.12
100 | CCCCAGGC | -0.0557

Row | Sequence | binding signal [E-score]
101 | CTTAAGAC | -0.0562
102 | TAGGATCA | 0.409
103 | ATAGTTAC | 0.0991
104 | CGGAAAAG | -0.17
105 | GCAACTGA | 0.053
106 | GTTCGAAA | -0.168
107 | TGTTAGAA | -0.159
108 | CGGCAACG | -0.0865
109 | TTATAAAA | -0.234
110 | TGAAGCAA | -0.147
111 | TAGAAGGA | 0.0376
112 | CTTGCCGC | -0.203
113 | GCAGTGGA | -0.165
114 | CTCCCGGA | 0.141
115 | ATTGTATG | 0.0928
116 | AGGGGGGC | -0.189
117 | CGTATTTC | -0.0214
118 | ATGCGGAG | -0.137
119 | ACAGCCCT | -0.237
120 | AACCTAGC | 0.0239
121 | CAGCATAA | -0.106
122 | ACCAAGCG | -0.0196
123 | CAGGGCCA | -0.228
124 | CGCCGAAA | -0.0834
125 | ACAAAGGC | -0.334

Row | Sequence | binding signal [E-score]
126 | ACCTGTCG | -0.0198
127 | ATACCAGC | 0.304
128 | CGTGCACC | -0.111
129 | AGAGGTGA | 0.0642
130 | ATTAGGCC | 0.0175
131 | CGCTTGAC | -0.21
132 | ATGATTGA | 0.0722
133 | GTAGGGCA | -0.0697
134 | TCAATGGA | -0.0709
135 | AATCCTTG | 0.0307
136 | TCGGCAGA | 0.113
137 | ATCGACCC | 0.243
138 | CATGAGCC | 0.118
139 | CAGAGCCG | -0.147
140 | CGGGAGCA | -0.1
141 | CTATCATA | 0.341
142 | TAAGTCCA | -0.129
143 | AACATGAA | -0.177
144 | CAAATATC | 0.21
145 | ACGACGGA | -0.113
146 | CGAGGCGA | 0.125
147 | ACGGCCTC | -0.144
148 | CCCGACGC | -0.135
149 | GTAACACA | -0.0821
150 | TAGGGATA | 0.41

Row | Sequence | binding signal [E-score]
151 | GTTCAATA | 0.143
152 | TATTAATA | 0.248
153 | CCTAGAAA | -0.248
154 | CTTTAAAA | -0.215
155 | CCGGTTAG | -0.0823
156 | TGATAACA | -0.0289
157 | CGAATCCC | 0.117
158 | AGCGGGAG | -0.143
159 | CGGTCGGA | 0.125
160 | GTTCTACA | -0.0627
161 | GGGGCGAA | -0.135
162 | GTCCTGCA | -0.229
163 | CTAATAAG | -0.0962
164 | AAAACGCA | -0.116
165 | AAGATCCC | 0.243
166 | TGGGCTAA | -0.19
167 | GTGAAACA | -0.0686
168 | CCAGGGCA | -0.0668
169 | TCTTGACA | 0.0127
170 | CAACTGTC | -0.207
171 | TCACATCA | 0.109
172 | CTTTAGTC | -0.17
